The results in this text go back to paper PMC12820563.

The list shows a part of the results. The list includes weakly bound sequences.

The target in the assay is T1, MBP-FoxP3dN (UniProt Q99JB6).
T1 sequence: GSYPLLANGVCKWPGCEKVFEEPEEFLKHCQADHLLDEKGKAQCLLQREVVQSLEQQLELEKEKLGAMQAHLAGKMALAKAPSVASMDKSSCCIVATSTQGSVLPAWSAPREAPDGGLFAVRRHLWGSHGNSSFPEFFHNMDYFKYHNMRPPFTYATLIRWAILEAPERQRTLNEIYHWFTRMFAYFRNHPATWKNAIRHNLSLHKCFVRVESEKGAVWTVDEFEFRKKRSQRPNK
As to the kind of experiment: PD-seq (MBP pull-down with sequencing). The following applies: 20 mM Tris-HCl pH 7.5, 100 mM NaCl, 1.5 mM MgCl2, 0.4 uM protein, 0.1 uM dsDNA library, 30 min, room temperature, amylose pull-down; high values mean tight binding; double strand, one strand shown.
“GATGATTGTTCTCCCAGCTGATGAATTGCCGTGGTCGAGTAAACAAATTTTCCTAATCTTTCTGTTCAAGCGCCATCTAC”: the binding signal (RPM ratio (pull-down/input)) was 0.607.

With “GATGATTGTTCTCCCAGCTGATGAATTTTAAATTTCGAGTAAACAAATTTTCCTAATCTTTCTGTTCAAGCGCCATCTAC”, the binding signal (RPM ratio (pull-down/input)) was determined as 0.275. Under “GATGATTGTTCTCCCAGCTGATGAATTTACTCCGTCGAGTAAACAAATTTTCCTAATCTTTCTGTTCAAGCGCCATCTAC” stands 0.361. Then “GATGATTGTTCTCCCAGCTGATGAATTGCGCCCATCGAGTAAACAAATTTTCCTAATCTTTCTGTTCAAGCGCCATCTAC”, with 2.41. Then “GATGATTGTTCTCCCAGCTGATGAATTACCAACTTCGAGTAAACAAATTTTCCTAATCTTTCTGTTCAAGCGCCATCTAC”, with 0.502.

For the sequence “GATGATTGTTCTCCCAGCTGATGAATTTCCTCGTTCGAGTAAACAAATTTTCCTAATCTTTCTGTTCAAGCGCCATCTAC”, the binding signal (RPM ratio (pull-down/input)) worked out at 0.255. Under “GATGATTGTTCTCCCAGCTGATGAATTCTGACTGTCGAGTAAACAAATTTTCCTAATCTTTCTGTTCAAGCGCCATCTAC” stands 0.848; under “GATGATTGTTCTCCCAGCTGATGAATTCTAAAGATCGAGTAAACAAATTTTCCTAATCTTTCTGTTCAAGCGCCATCTAC”, 0.201. As for “GATGATTGTTCTCCCAGCTGATGAATTACAGAGGTCGAGTAAACAAATTTTCCTAATCTTTCTGTTCAAGCGCCATCTAC”, the binding signal (RPM ratio (pull-down/input)) is 0.31.

Turning to “GATGATTGTTCTCCCAGCTGATGAATTTTTCCGGTCGAGTAAACAAATTTTCCTAATCTTTCTGTTCAAGCGCCATCTAC”, the binding signal (RPM ratio (pull-down/input)) is 0.15.

With “GATGATTGTTCTCCCAGCTGATGAATTGCGCCTCTCGAGTAAACAAATTTTCCTAATCTTTCTGTTCAAGCGCCATCTAC”, the binding signal (RPM ratio (pull-down/input)) was determined as 7.17. Then “GATGATTGTTCTCCCAGCTGATGAATTAGCATCATCGAGTAAACAAATTTTCCTAATCTTTCTGTTCAAGCGCCATCTAC”, with 4.09.

In the case of “GATGATTGTTCTCCCAGCTGATGAATTTCGTGTGTCGAGTAAACAAATTTTCCTAATCTTTCTGTTCAAGCGCCATCTAC”, the binding signal (RPM ratio (pull-down/input)) came out at 1.7.

For “GATGATTGTTCTCCCAGCTGATGAATTGAAGAAGTCGAGTAAACAAATTTTCCTAATCTTTCTGTTCAAGCGCCATCTAC”, the binding signal (RPM ratio (pull-down/input)) is 0.175. For “GATGATTGTTCTCCCAGCTGATGAATTGCTCTTCTCGAGTAAACAAATTTTCCTAATCTTTCTGTTCAAGCGCCATCTAC”, the binding signal (RPM ratio (pull-down/input)) was 0.552. With “GATGATTGTTCTCCCAGCTGATGAATTCTCCGAGTCGAGTAAACAAATTTTCCTAATCTTTCTGTTCAAGCGCCATCTAC”, the binding signal (RPM ratio (pull-down/input)) was 0.182.

For the sequence “GATGATTGTTCTCCCAGCTGATGAATTCTCTAGTTCGAGTAAACAAATTTTCCTAATCTTTCTGTTCAAGCGCCATCTAC”, the binding signal (RPM ratio (pull-down/input)) is 0.293. With “GATGATTGTTCTCCCAGCTGATGAATTCGACGGCTCGAGTAAACAAATTTTCCTAATCTTTCTGTTCAAGCGCCATCTAC”, the binding signal (RPM ratio (pull-down/input)) was 0.282. In the case of “GATGATTGTTCTCCCAGCTGATGAATTGAGTCTCTCGAGTAAACAAATTTTCCTAATCTTTCTGTTCAAGCGCCATCTAC”, the binding signal (RPM ratio (pull-down/input)) was determined as 0.631. In the case of “GATGATTGTTCTCCCAGCTGATGAATTAAGACCTTCGAGTAAACAAATTTTCCTAATCTTTCTGTTCAAGCGCCATCTAC”, the binding signal (RPM ratio (pull-down/input)) was 0.293. As for “GATGATTGTTCTCCCAGCTGATGAATTCGTCCGCTCGAGTAAACAAATTTTCCTAATCTTTCTGTTCAAGCGCCATCTAC”, the binding signal (RPM ratio (pull-down/input)) came to 0.348. Take “GATGATTGTTCTCCCAGCTGATGAATTTCGGACCTCGAGTAAACAAATTTTCCTAATCTTTCTGTTCAAGCGCCATCTAC”: the binding signal (RPM ratio (pull-down/input)) is 0.273.

As to “GATGATTGTTCTCCCAGCTGATGAATTTACGCTGTCGAGTAAACAAATTTTCCTAATCTTTCTGTTCAAGCGCCATCTAC”, the binding signal (RPM ratio (pull-down/input)) is 0.665. As for “GATGATTGTTCTCCCAGCTGATGAATTATCGGTCTCGAGTAAACAAATTTTCCTAATCTTTCTGTTCAAGCGCCATCTAC”, the binding signal (RPM ratio (pull-down/input)) amounted to 0.382. On to “GATGATTGTTCTCCCAGCTGATGAATTGTGCACATCGAGTAAACAAATTTTCCTAATCTTTCTGTTCAAGCGCCATCTAC”, for which the binding signal (RPM ratio (pull-down/input)) stood at 2.08. As to “GATGATTGTTCTCCCAGCTGATGAATTACCTCTGTCGAGTAAACAAATTTTCCTAATCTTTCTGTTCAAGCGCCATCTAC”, the binding signal (RPM ratio (pull-down/input)) was 0.303. For “GATGATTGTTCTCCCAGCTGATGAATTCCAAGGGTCGAGTAAACAAATTTTCCTAATCTTTCTGTTCAAGCGCCATCTAC”, the binding signal (RPM ratio (pull-down/input)) worked out at 0.189.

With “GATGATTGTTCTCCCAGCTGATGAATTGTACAAATCGAGTAAACAAATTTTCCTAATCTTTCTGTTCAAGCGCCATCTAC”, the binding signal (RPM ratio (pull-down/input)) is 0.425. For “GATGATTGTTCTCCCAGCTGATGAATTTCATGTCTCGAGTAAACAAATTTTCCTAATCTTTCTGTTCAAGCGCCATCTAC”, the binding signal (RPM ratio (pull-down/input)) amounted to 0.74. With “GATGATTGTTCTCCCAGCTGATGAATTACCGTCGTCGAGTAAACAAATTTTCCTAATCTTTCTGTTCAAGCGCCATCTAC”, the binding signal (RPM ratio (pull-down/input)) came out at 0.55. For the sequence “GATGATTGTTCTCCCAGCTGATGAATTCTTCAGCTCGAGTAAACAAATTTTCCTAATCTTTCTGTTCAAGCGCCATCTAC”, the binding signal (RPM ratio (pull-down/input)) amounted to 0.192. Regarding “GATGATTGTTCTCCCAGCTGATGAATTATATTTATCGAGTAAACAAATTTTCCTAATCTTTCTGTTCAAGCGCCATCTAC”, the binding signal (RPM ratio (pull-down/input)) is 5.59. “GATGATTGTTCTCCCAGCTGATGAATTAACAGCCTCGAGTAAACAAATTTTCCTAATCTTTCTGTTCAAGCGCCATCTAC”: the binding signal (RPM ratio (pull-down/input)) amounted to 0.491. In the case of “GATGATTGTTCTCCCAGCTGATGAATTCGTGGAATCGAGTAAACAAATTTTCCTAATCTTTCTGTTCAAGCGCCATCTAC”, the binding signal (RPM ratio (pull-down/input)) stood at 0.26. For the sequence “GATGATTGTTCTCCCAGCTGATGAATTAAGGGCCTCGAGTAAACAAATTTTCCTAATCTTTCTGTTCAAGCGCCATCTAC”, the binding signal (RPM ratio (pull-down/input)) is 0.451. Then “GATGATTGTTCTCCCAGCTGATGAATTATATGAATCGAGTAAACAAATTTTCCTAATCTTTCTGTTCAAGCGCCATCTAC”, with 0.419. Turning to “GATGATTGTTCTCCCAGCTGATGAATTATATACGTCGAGTAAACAAATTTTCCTAATCTTTCTGTTCAAGCGCCATCTAC”, the binding signal (RPM ratio (pull-down/input)) amounted to 0.728. Take “GATGATTGTTCTCCCAGCTGATGAATTGGAAGTTTCGAGTAAACAAATTTTCCTAATCTTTCTGTTCAAGCGCCATCTAC”: the binding signal (RPM ratio (pull-down/input)) came out at 0.298. Consider “GATGATTGTTCTCCCAGCTGATGAATTATTGTAGTCGAGTAAACAAATTTTCCTAATCTTTCTGTTCAAGCGCCATCTAC”, for which the binding signal (RPM ratio (pull-down/input)) turned out to be 0.771. For “GATGATTGTTCTCCCAGCTGATGAATTCATTGCATCGAGTAAACAAATTTTCCTAATCTTTCTGTTCAAGCGCCATCTAC”, the binding signal (RPM ratio (pull-down/input)) is 1.32.
